# Measured values taken from PubChem BioAssay AID1347165 (National Center for Advancing Translational Sciences (NCATS), 2019).
# Hit rate of the full screen: of about 220,000 compounds, about 5,700 (2.6%) were called active. Inconclusive means that the source gave no clear call. Such entries were picked first, then a sample of the others. Calls come from the whole dose curve; as a rule, active = well fitted inhibition curve with a large enough effect; inconclusive = small, poorly fitted or top-dose-only effect; inactive = no such curve, though single readings can be large or run the other way. Potencies beside an inconclusive call are fits to weak or partial responses and may not hold up.
# Biological target: Lysine-specific demethylase 5B (Homo sapiens) (UniProt Q9UGL1)
# UniProt Q9UGL1, sequence (Q9UGL1 whole entry, looked up): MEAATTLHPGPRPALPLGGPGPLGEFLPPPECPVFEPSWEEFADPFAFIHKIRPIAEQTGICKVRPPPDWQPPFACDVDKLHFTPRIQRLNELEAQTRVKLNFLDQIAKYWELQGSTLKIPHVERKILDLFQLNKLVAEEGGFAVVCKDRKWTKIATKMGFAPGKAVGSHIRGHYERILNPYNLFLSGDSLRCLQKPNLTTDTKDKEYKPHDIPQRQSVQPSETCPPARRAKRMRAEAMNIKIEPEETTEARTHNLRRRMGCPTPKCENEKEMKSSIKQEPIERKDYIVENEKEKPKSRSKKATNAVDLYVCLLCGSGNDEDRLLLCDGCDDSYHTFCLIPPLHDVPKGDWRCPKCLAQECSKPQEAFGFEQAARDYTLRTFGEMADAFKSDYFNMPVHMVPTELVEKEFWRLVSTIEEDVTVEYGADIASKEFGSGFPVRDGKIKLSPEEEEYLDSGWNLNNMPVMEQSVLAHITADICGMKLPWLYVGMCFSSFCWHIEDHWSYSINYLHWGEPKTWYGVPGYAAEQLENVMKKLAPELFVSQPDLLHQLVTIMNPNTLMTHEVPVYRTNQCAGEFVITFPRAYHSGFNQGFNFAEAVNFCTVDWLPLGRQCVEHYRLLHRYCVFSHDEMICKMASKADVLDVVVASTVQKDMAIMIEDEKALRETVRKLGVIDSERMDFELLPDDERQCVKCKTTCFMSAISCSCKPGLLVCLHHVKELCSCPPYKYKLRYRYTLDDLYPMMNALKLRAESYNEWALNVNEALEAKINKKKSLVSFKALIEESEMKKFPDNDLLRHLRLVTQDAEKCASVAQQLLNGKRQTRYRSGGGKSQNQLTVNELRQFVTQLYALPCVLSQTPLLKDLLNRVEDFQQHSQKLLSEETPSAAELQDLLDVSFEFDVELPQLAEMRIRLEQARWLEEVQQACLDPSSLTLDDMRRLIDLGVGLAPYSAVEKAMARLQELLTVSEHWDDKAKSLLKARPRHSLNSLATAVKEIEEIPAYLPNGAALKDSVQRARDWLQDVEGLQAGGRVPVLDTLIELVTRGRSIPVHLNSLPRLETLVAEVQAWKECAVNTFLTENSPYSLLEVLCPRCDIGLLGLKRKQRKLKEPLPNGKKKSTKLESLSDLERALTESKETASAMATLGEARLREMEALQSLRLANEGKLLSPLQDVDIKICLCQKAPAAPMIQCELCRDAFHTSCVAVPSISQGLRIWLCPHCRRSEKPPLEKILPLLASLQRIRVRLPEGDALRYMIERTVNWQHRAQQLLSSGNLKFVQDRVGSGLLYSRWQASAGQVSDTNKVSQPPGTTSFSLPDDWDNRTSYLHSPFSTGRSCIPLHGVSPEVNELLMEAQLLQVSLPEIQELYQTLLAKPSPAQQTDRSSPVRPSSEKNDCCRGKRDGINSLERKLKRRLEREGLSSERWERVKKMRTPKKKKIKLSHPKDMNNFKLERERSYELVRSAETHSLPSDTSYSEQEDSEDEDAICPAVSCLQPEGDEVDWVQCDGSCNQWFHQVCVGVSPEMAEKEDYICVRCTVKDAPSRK
# Test: Primary screen for KDM5B Histone Demethylases FDH-coupled qHTS; note: nearly all actives have a fitted effect of over 70% in size
# Conditions: FDH-coupled NADH fluorescence (FDH is formaldehyde dehydrogenase); series mostly up to 57.7 µM
# In short: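 Inhibition is measured as reduced NADH fluorescence generation from FDH coupling to formaldehyde release. Truncated KDM5BΔAP at 200 nM final acts on H3K4me3 peptide (12.5 µM in substrate mix) in pH 7.5 HEPES buffer with Tween-20, 30 min, room temperature.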
# Potency is the fitted concentration of half-maximal effect; tags give direction and shape of the fitted curve.
row,Compound,Potency
1,CCn1nccc1C(=O)N1CCC2(CC1)CC(N1CCN(c3ccccn3)CC1)CCO2 (stereo not drawn),"inconclusive: 14.1 µM [inhibitor, partial curve]"
2,CCc1c(C(=O)N2CCCC3(CCNC3)C2)[nH]c2ccccc12 (stereo not drawn),"inconclusive: 31.6 µM [inhibitor, single point]"
3,Cc1nn(-c2ccc(Cl)nn2)c2c1C(c1ccc(C#N)cc1)CC(=O)N2 (stereo not drawn),inactive
4,CN(Cc1ccc(-c2ccc(Br)cc2)o1)C(=O)CSc1nnc(C2CC2)n1C1CC1,"inconclusive: 31.6 µM [inhibitor, single point]"
5,CCN1c2cc(C(=O)NCc3ccccc3Cl)ccc2C(=O)N2CCCCCC21 (stereo not drawn),"inconclusive: 25.1 µM [inhibitor, partial curve, poor fit]"
6,Cc1c(Cl)cccc1NC(=O)CSc1nc(=O)n(CCN2CCOCC2)c2c1CCC2,"inconclusive: 0.891 µM [inhibitor, partial curve, poor fit]"
7,COc1ccc(-c2nc3c(C)cccc3cc2CN(C)Cc2ncc[nH]2)cc1OC,"inconclusive: 14.1 µM [inhibitor, partial curve, poor fit]"
8,Cc1cccc(C(=O)N2CC(=O)N(c3cccc(Cl)c3)CC2C)n1 (stereo not drawn),inactive
9,CCOC(=O)c1cccc(NC(=O)c2ncoc2-c2ccc(OC)c(OC)c2)c1,inactive
10,CN1[C@@H](CCC(=O)NCc2cccnc2)CNC(=O)[C@@H]2[C@H]1CCN2C1CCCCC1,"inconclusive: 31.6 µM [inhibitor, partial curve, poor fit]"
11,COc1ccc2oc(=O)c(C(=O)OCc3ccccc3)cc2c1,"inconclusive: 25.1 µM [inhibitor, partial curve, poor fit]"
12,COCC(=O)N1CCN2C(=O)c3cc(-c4ccc5c(c4)OCO5)ccc3NC(=O)[C@H]2C1,"inconclusive: 31.6 µM [inhibitor, partial curve, poor fit]"
13,COCCN1CCOc2nc(-c3ccc(Oc4ccccc4)cc3)ncc2C1=O,"inconclusive: 31.6 µM [inhibitor, partial curve]"
14,O=C(Nc1ccc(Cl)cc1)c1cc2n(n1)CC(c1ccc(Cl)cc1)OC2 (stereo not drawn),active: 31.6 µM
15,CCN(Cc1ccncc1)C(=O)c1cc(-c2cnc(C)nc2)nc2c(C)cccc12,"inconclusive: 25.1 µM [inhibitor, single point]"
16,O=C(Cc1cccc(F)c1)NC1CCN(c2cc(-c3ccc(Cl)cc3)[nH]n2)CC1,inactive
17,CCOc1ccc(S(=O)(=O)N2CCN(C)CC2)cc1NC(=O)c1ccccc1F,inactive
18,Cc1ccc(-n2c3c(c(=O)[nH]c2=O)CN(Cc2ccco2)CN3)cc1C,inactive
